B1: chr17:32711987:32712195:-|CDS|ENSG00000176658|control|control|control (ssRNA)
RNA: GGGAGUUCUACAGUCCGACGAUCUCCUUCAGACAAAGAGGCUGUCAAGAAACUAAUUGAACGGUGUGGUUUUCAGGAUGAUGUAGCUUAUGGGAAGACCAAAAUUUUCAUUCGAACACCCCGAACAUUGUUUACCUUGGAAGACAACAGAGGAUUGAGCAUCA
B2: ENSG00000136451:be:win_951|CDS|ENSG00000136451|bound_else_gene|NA|bound_elsewhere_windowed (ssRNA)
RNA: GGGAGUUCUACAGUCCGACGAUCUACAUGUAAACAAGGCAUCAGUAAAACAUGCAUGAGUGAAGAGACCAGUAACCAAAAGCAGCAGCAGCAGCAGCAGCAGCAGCAGCAGCAGCAGCAACAACAACAACAACAACAUGUGACCAACAGAGGAUUGAGCAUCA
B3: chr4:138171112:138171219:-|3pUTR|ENSG00000151012|msi1|total|mutant (ssRNA)
RNA: GGGAGUUCUACAGUCCGACGAUCUUUUUUUUUUUCACAUCAGUUUGAUCAGGAAAGUGUAUAACACAUCUCCGAGCAAGAGUCCGUUUGGUAUUAAAUCCUCAUCCGAACAACCACCUGUUUCACUAAUAACUUACCCCUGAUCAACAGAGGAUUGAGCAUCA
B4: chr10:43183422:43183523:+|CDS|ENSG00000169826|msi1|FALSE|bound_elsewhere (ssRNA)
RNA: GGGAGUUCUACAGUCCGACGAUCUAAAGCCAUGAAUGAGGCCUCUCACUCCCACCUGGGAAUGCUGGUCUUCAGGGAGGAAAUAGAGACGCAUCUUCAUAAACAGGCAUACAGGACAAACAGUGAAGCUGUUGGUUGAAAUCACAACAGAGGAUUGAGCAUCA
B5: chr11:118373572:118373686:+|CDS|ENSG00000110344|unk|FALSE|bound_elsewhere (ssRNA)
RNA: GGGAGUUCUACAGUCCGACGAUCGAAGACCUUGCUGGGAGUAAUUCUGAGUAUCUCCUGCUUAUUAAAGACUCCGGGUGUUGUAGAAAAUCAUGGCUACUUUUUGAAUCCAUCUCGUUCCAGCCCCCAGGAGAUCAAAGUACACAACAGAGGAUUGAGCAUCA
B6: ENSG00000107863:be:win_3851|CDS|ENSG00000107863|bound_else_gene|NA|bound_elsewhere_windowed (ssRNA)
RNA: GGGAGUUCUACAGUCCGACGAUCUGGCAGAAAAUUCAGAAAAAAAUAAGAUGGAACCAAGAAACCUAGCAAUAGUGUUUGGUCCCACCCUUGUUCGAACAUCAGAAGACAACAUGACCCACAUGGUCACCCACAUGCCUGACCCAACAGAGGAUUGAGCAUCA
B7: chr15:22866942:22867043:+|3pUTR|ENSG00000140157|msi1|total|mutant (ssRNA)
RNA: GGGAGUUCUACAGUCCGACGAUCUAAAGAUUUCACUAAUUUGGACCAAGAAAUUACUUUUCUUGUAUUUAAACAAACAAUGGCCGCUCACUAAAAUGACCUCAGCACAUGACGAUUUCUAUUAACAUUUUAUUGUUGCCGAAGCAACAGAGGAUUGAGCAUCA
B8: chr8:27776916:27777017:+|CDS|ENSG00000171320|unk|total|mutant (ssRNA)
RNA: GGGAGUUCUACAGUCCGACGAUCAAACCACAAGUUACACUCCAGGGUGGAGCAGCAUUUUUUGUCCGAAAAAAAUCUUCUCUCCGAAAAUCGUCCCUGGAAAAUGAGCCGUCACUGGGACGCACCCAAAAGAGUAAAUCAGAACAACAGAGGAUUGAGCAUCA
B9: chr16:57472207:57472321:-|3pUTR|ENSG00000125170|unk|total|mutant (ssRNA)
RNA: GGGAGUUCUACAGUCCGACGAUCUCAAACUUUUGGUUGUGUGGGGUUUUUUGUUGUUUUUUGGGUUUUGUUUUUUAAUACUUCCGGGUCCUGAUUUGUGGGAACAGACCUUCUUGUAAAUAACCACUAUUUGAGUUGUGGCAGCAACAGAGGAUUGAGCAUCA
B10: chr1:248850005:248850516:-|three_prime_utr|ENSG00000171163|control|control|control (ssRNA)
RNA: GGGAGUUCUACAGUCCGACGAUCUUCCCCUGUGAAUUCUGCGGCAAGCGCUUUGAGAAGCCAGACAGUGUUGCAGCCCACCGUAGCAAAAGUCACCCAGCCCUGCUUCUAGCCCCUCAAGAGUCACCCAGUGGUCCCCUAGAGCAACAGAGGAUUGAGCAUCA
B11: chr1:112701350:112701454:-|3pUTR|ENSG00000155366|unk|total|mutant (ssRNA)
RNA: GGGAGUUCUACAGUCCGACGAUCGGCUCCAUGCUGAAGGCUCCCAUUUUCAGUUCCCUCCUGCCCAGGACUGCAUUGUUUUCCCGCCCCGAGGUGGUGGCACGGGCCCUCCCUCCCAGCGCUCUGGGAGCCACGCCUAUGCCCCAACAGAGGAUUGAGCAUCA
B12: chr12:39553730:39553837:-|3pUTR|ENSG00000173208|unk|FALSE|unique (ssRNA)
RNA: GGGAGUUCUACAGUCCGACGAUCGAAGUAUGUUAAGCUAAGCACAGAGAAAAAAAGGCAGCAAGACAUGUUUUAUAAGAUUUUAGCAUUAAGGAAGUAUAUGAUCUGACUUUUCAGAAGAAAAUAAACAAAUGCAUUAUGUAACAACAGAGGAUUGAGCAUCA
B13: chr11:18933498:18933815:-|three_prime_utr|ENSG00000170255|control|control|control (ssRNA)
RNA: GGGAGUUCUACAGUCCGACGAUCAGACAGGACUUUGAGAGCAACACUGCCCUGCCACCCUUGACAAUUAUAUGCGUUUUUCUUAGCCUUCUGCCUCAGAAAUGUCUCAGUGGUUCCUCAAGGUCUUCAAAUAGAUGUUUAUCUCAACAGAGGAUUGAGCAUCA
B14: chr1:19339193:19339294:-|3pUTR|ENSG00000077549|msi1|total|mutant (ssRNA)
RNA: GGGAGUUCUACAGUCCGACGAUCGAGACCGUGUGGUUUUUGUUCACCCGGGCCCCCCGUCUUCCUCCCUGUCCCCCCAUUUACCGGCAUAAAAUCCACUGUCUGCCAGCCUCCCUUCCCUCCCACCUUUUUGGUACAUUGGUGCAACAGAGGAUUGAGCAUCA
B15: chr7:32869766:32869881:-|CDS|ENSG00000170852|unk|FALSE|bound_elsewhere (ssRNA)
RNA: GGGAGUUCUACAGUCCGACGAUCAUGUACUGUUAUUUUCCAAGGUCUGACUCAUGGGUAGAAAUGGCCAUGAGACAGACUAGUAGGUCCUUUGCUUCAGCUGCAGCUUUUGGUGAUAAAAUUUUCUAUAUUGGAGGGUUGCAUCAACAGAGGAUUGAGCAUCA
B16: ENSG00000107863:be:win_6301|3pUTR|ENSG00000107863|bound_else_gene|NA|bound_elsewhere_windowed (ssRNA)
RNA: GGGAGUUCUACAGUCCGACGAUCAUUGGUAACAGAUAUCAUUACAUUUACCAGUUUUAACACAGGUGGAUACAGAACUUCCAUUCUUUAGUCAUUCCAGGUGGAUCUGAGUUUUAUAUUCAAACUUUUAAUACAGUUUUUGAGCAACAGAGGAUUGAGCAUCA
B17: chr12:96943601:96943709:+|CDS|ENSG00000139350|unk|total|mutant (ssRNA)
RNA: GGGAGUUCUACAGUCCGACGAUCAACUCAGUGUUUCCUCCAAGAAAAAAUCCAGUAACUUCAAGUACUUCAGUAUUGCAUUCCCGUCCUCUUAAUGUUUUUAUGGGAUCUCCAGGGAAAGAGGAAAAUGAAAACCGUGAUCUACAACAGAGGAUUGAGCAUCA
B18: chr12:76029359:76029534:-|3pUTR|ENSG00000139289|msi1|FALSE|unique (ssRNA)
RNA: GGGAGUUCUACAGUCCGACGAUCAGAAGUUUAAAAAGCUAAAAGUUAAAAAUGGUGUAAUUAUGAAAAUCUAACACUCAAGAUAGUUUCUAAAAGGAAAUCAGUAGUUAAGGAUACCUGAUUUCAAAAUAUUUAAAGCAUAACCAACAGAGGAUUGAGCAUCA
B19: chr12:907890:907991:+|CDS|ENSG00000060237|msi1|total|mutant (ssRNA)
RNA: GGGAGUUCUACAGUCCGACGAUCGCCUCCUGCCAUGACGUCCAGCAGGAAGGGCACAUUCACAGAUGACUUGCACAAGUUGGCCGACAAUUGGGCCCGAGAUGCCAUGAAUCUCUCAGGCAGGAGAGGAAGCAAAGGGCACAUCAACAGAGGAUUGAGCAUCA
B20: chr10:94132299:94132400:+|CDS|ENSG00000138193|unk|FALSE|unique (ssRNA)
RNA: GGGAGUUCUACAGUCCGACGAUCUGAGUAUCGCGCCACCCUCCAAAGGACUUCAAUAUCGCAGUACAUCACCGGUUCUCUCCUAGAAGCAACCACGUCUUUGGGAGCAAGAAGUGGCCUUCUCAGUACUUUUGGAGGAUCCACCAACAGAGGAUUGAGCAUCA
B21: chr10:104129887:104130138:-|three_prime_utr|ENSG00000197748|control|control|control (ssRNA)
RNA: GGGAGUUCUACAGUCCGACGAUCAAAAAAUCAUUUCAUUUGGGUAAAAUGAUUUCCUUUUCUUUCUUACUGGGAAAUUGAAGUAGCAUGUCCUCUGAGUUGCAUGUUUUAGAUAAAAAAUUGUUUAAUUUUAGCCUUAAUUGUCAACAGAGGAUUGAGCAUCA
B22: chr12:27755550:27755651:+|3pUTR|ENSG00000061794|msi1|total|mutant (ssRNA)
RNA: GGGAGUUCUACAGUCCGACGAUCAUACUAAUGCUUAAUGGCAAUGAUUACUCCAGAGUUUUUUAAUUUUUACACUGGGGCAACCGACCCGGAGGUCUCUGAUUUCUUCUUGGUCUAAAGUGUUUUGAUUUUAUUUCUACAUAACAACAGAGGAUUGAGCAUCA

The list shows a part of the results.

The target in the assay is MSI1 full-length (mouse, UniProt Q61474 1-362). Nature of the assay: nsRBNS (natural sequence RNA bind-n-seq); RBNS binding buffer (assumed for nsRBNS): 25 mM Tris pH 7.5, 150 mM KCl, 3 mM MgCl2, 0.01% Triton X-100, 500 ug/ml BSA, 20 U/ml SUPERase-In, 4 C; UNK is unkempt and MSI1 is Musashi-1; names of the RNAs are library labels; protein concentration not given here; high values mean tight binding.
UniProt Q61474, sequence (Q61474 whole entry): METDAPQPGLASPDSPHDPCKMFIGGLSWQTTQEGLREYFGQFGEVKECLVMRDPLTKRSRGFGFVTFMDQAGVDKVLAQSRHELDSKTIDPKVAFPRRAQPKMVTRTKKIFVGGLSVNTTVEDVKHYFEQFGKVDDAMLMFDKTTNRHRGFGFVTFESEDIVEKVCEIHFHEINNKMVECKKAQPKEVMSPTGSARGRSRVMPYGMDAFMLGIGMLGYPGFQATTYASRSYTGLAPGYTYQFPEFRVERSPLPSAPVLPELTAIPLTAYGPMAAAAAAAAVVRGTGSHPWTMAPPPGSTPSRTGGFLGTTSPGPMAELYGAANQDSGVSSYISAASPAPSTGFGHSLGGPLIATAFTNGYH
In turn, B1 had a binding signal of 0.412 enrichment R.
In the case of B2, the binding signal stood at 0.482 enrichment R.
The figure for B3 is 0.7 enrichment R; for B4 it is 0.394 enrichment R.
The figure for B5 is 0.385 enrichment R; for B6 it is 0.286 enrichment R.
The figure for B7 is 0.385 enrichment R.
For the molecule B8, the binding signal came out at 0.313 enrichment R.
The figure for B9 is 0.464 enrichment R.
The figure for B10 is 0.938 enrichment R; for B11 it is 0.602 enrichment R.
The figure for B12 is 2.43 enrichment R; for B13 it is 0.839 enrichment R.
B14: the binding signal amounted to 1.07 enrichment R.
The figure for B15 is 0.456 enrichment R; for B16 it is 2.33 enrichment R; for B17 it is 0.361 enrichment R.
The figure for B18 is 10.2 enrichment R.
As for B19, the binding signal amounted to 0.364 enrichment R.
The figure for B20 is 0.43 enrichment R; for B21 it is 4.3 enrichment R.
The figure for B22 is 0.497 enrichment R.

The values above are taken from paper PMC12136788.
